# Reference: PubChem BioAssay AID662 (National Center for Advancing Translational Sciences (NCATS), 2007)
# The campaign covered roughly 71,000 compounds. About 1,800 (2.5%) were called active. The inconclusive results got no clear call from the source; some entries with a clear call stand among them for comparison. The call rests on the fitted dose curve; in most records, active means well fitted activation curve with a large enough effect in the signal ratio, with a control signal flat (not every such curve was filed as active); inconclusive means small, poorly fitted or top-dose-only effect, or effect the other way, or a change in a side signal; inactive means flat fitted curve, though single readings scatter; the % refers to the signal ratio. Where the call is inconclusive, the potency comes from a doubtful curve fit.
# Assay: Cell signaling CRE-BLA (Fsk stim); on activity change, negative = inhibition: % of control where 0% means no effect
# Settings: CHO CRE-bla reporter (cAMP response element driving beta-lactamase), forskolin EC10, beta-lactamase ratio; activity change, negative = inhibition: at 38.2 µM (top of the series) unless noted
# Summary of the method: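 The 460nm/530nm emission ratio after CCF4 loading defined %Activity, from which AC50 values were obtained. CRE-bla CHO cells received compound dilution series together with an EC10 level of NKH 477 for 3 hours at 37 degrees Celsius.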
# Potency means the concentration at half of the fitted maximal effect; tags describe the fitted curve by direction and shape.
Compound,"activity change, negative = inhibition",Potency
CN1CCCC2(CCN(C(=O)c3ccco3)CC2)C1,inactive: 2.29%,
CC1=NCCc2c1[nH]c1cc(O)ccc21,inconclusive: 2.5% [fluorescent] [at 17.1 µM],
COC(=O)C(O)(c1cn(C)c2ccccc12)C(F)(F)F (stereo unspecified),inconclusive: 16.6%,
CN(C(=O)Cc1ccc(Cl)c(Cl)c1)[C@H](CN1CCCC1)c1ccccc1,,"inconclusive: 20 µM [falling, partial curve, poor fit]"
Oc1cc2c(cc1O)[C@H]1c3ccccc3CN[C@@H]1CC2,inactive: -9%,
CCCN(CCC)[C@@H]1CCc2ccc(O)cc2C1,inconclusive: 44.4%,
CCCCn1c(O)c(C(CC)=NCc2ccc3c(c2)OCO3)c(=O)[nH]c1=O,,"inconclusive: 3.16 µM [rising, partial curve]"
COc1ccc(-c2nc(CS(=O)CC(=O)N3CCC4(CC3)OCCO4)c(C)o2)cc1 (stereo unspecified),inconclusive: -9.13%,
CNCCc1ccc(O)c(O)c1,inactive: -6.15%,
O[C@H](CN1CC1)[C@@H](O)CN1CC1,inactive: 1.27% [at 7.6 µM],
O=C(CCCCCn1c(=S)[nH]c2ccccc2c1=O)N1CCC2(CC1)OCCO2,inconclusive: 1.12%,
Cc1cc(C(=O)N2CCC3(CC2)OCCO3)cs1,inactive: -5.6%,
O=C(Cn1ncc2c3ccccc3n(Cc3cccc(Cl)c3)c2c1=O)N1CCC2(CC1)OCCO2,inconclusive: 1.79%,
O=C1CC(N2CC=C(c3ccccc3)CC2)C(=O)N1c1ccc(F)cc1 (stereo unspecified),inconclusive: -20.5%,
ClC(Cl)(Cl)c1ccccc1,inactive,
CC1CN=C(NCc2ccncc2)S1 (stereo unspecified),,"inconclusive: 3.16 µM [falling, single point]"
CCOC(=O)c1ccc(NC(=O)C2C3C=CC(O3)C2C(=O)O)cc1 (stereo unspecified),inconclusive: -5.51% [at 7.6 µM],
Cc1cccc(-n2c(CN3C(=O)c4ccccc4C3=O)nc3ccccc3c2=O)n1,inactive: -4.76%,
CCOC(=O)c1ccc(N2C(=O)CC(N3CC=C(c4ccc(F)cc4)CC3)C2=O)cc1 (stereo unspecified),inconclusive: -12.3%,
C=CCN=C=S,inactive: -3.98%,
CC(C)[N+](=O)[O-],inactive: 2.82%,

Compound,"activity change, negative = inhibition",Potency
CC(=NCCN1CCOCC1)c1c(O)n(C2CCCCC2)c(=O)[nH]c1=O,inconclusive: 14.1%,
CN(CCc1ccc(Cl)c(Cl)c1)[C@H]1CCCC[C@H]1N1CCCC1,,"inconclusive: 31.6 µM [falling, single point]"
CCOC(=O)c1ccc(NC(=O)c2c(O)[nH]c(=O)[nH]c2=O)cc1,,"inconclusive: 12.6 µM [falling, partial curve]"
COc1ccc(C[C@@H]2NC[C@H](O)[C@H]2OC(C)=O)cc1,inconclusive: -23.5%,
CN1CCc2cc3c(cc2[C@@H]1[C@@H]1OC(=O)c2c1ccc1c2OCO1)OCO3,inactive,
CN1C[C@H](CNC(=O)OCc2ccccc2)C[C@H]2c3cccc4c3c(cn4C)C[C@@H]21,,"inconclusive: 15.8 µM [falling, partial curve, poor fit]"
COP(=S)(OC)SCn1nnc2ccccc2c1=O,,"inconclusive: 31.6 µM [falling, single point]"
C[C@H]1CC[C@@H]2[C@@H](C)[C@H]3[C@H](C[C@H]4[C@@H]5CC=C6CC(O[C@@H]7O[C@H](CO)[C@H](O)[C@H](O[C@@H]8O[C@H](CO)[C@@H](O)[C@H](O)[C@H]8O)[C@H]7O[C@H]7O[C@@H](C)[C@H](O)[C@@H](O)[C@H]7O)CC[C@]6(C)[C@H]5CC[C@]34C)N2C1 (stereo partly specified),inactive: -10.8%,
CC12CCCCC1=NC(c1ccc(Br)cc1)N2O (stereo unspecified),,"inconclusive: 0.501 µM [falling, full curve]"
CCC(=NCC1CCCO1)c1c(O)n(Cc2ccccc2)c(=O)[nH]c1=O (stereo unspecified),,"inconclusive: 12.6 µM [rising, single point]"
Cc1nc2ccccc2n1C1CCN(Cc2nnnn2CCc2ccccc2)CC1,inconclusive: 24.4%,
O=C(Cn1ncc2ccsc2c1=O)N1CCC2(CC1)OCCO2,inactive: -4.81%,
C=CCn1c(O)c(C(C)=Nc2ccc(NC(C)=O)cc2)c(=O)[nH]c1=O,,"inconclusive: 15.8 µM [rising, single point]"
CCC1=C(C[C@H]2NCCc3cc(OC)c(OC)cc32)C[C@H]2c3ccccc3CCN2C1,inactive: -9.21% [at 7.6 µM],
COc1ccc(CC2c3cc(OC)c(OC)cc3CCN2C)cc1OC (stereo unspecified),,"inconclusive: 15.8 µM [rising, single point]"
NC(CCl)=N[C@H]1CN2CCC1CC2,inactive: 1.05% [at 7.6 µM],
CC(C)CCOC(=O)c1c(N)n(CC2CCCO2)c2nc3ccccc3nc12 (stereo unspecified),,"inconclusive: 12.6 µM [rising, single point]"
O=c1cccc2n1C[C@H]1C[C@@H]2CN(CCO)C1,inactive: 0.482%,
CCOC(=O)c1ccccc1C(=O)OCC,inactive,
CCC/C=C(\CCC)C(NP(=O)(c1ccccc1)c1ccccc1)c1ccccc1 (stereo unspecified),inconclusive: 18.8% [cytotoxic],
